# Assay results published in PubChem BioAssay (NCATS).
# The inconclusive results got no clear call from the source; some entries with a clear call stand among them for comparison. Potencies of inconclusive entries are left out as doubtful fits. Active and inactive are the calls of the source. The call rests on the fitted dose curve; in most records, active means well fitted inhibition curve with a large enough effect; inconclusive means small, poorly fitted or top-dose-only effect; inactive means no such curve, though single readings can be large or run the other way.
# Target: N-terminal Xaa-Pro-Lys N-methyltransferase 1 (Homo sapiens) (UniProt Q9BV86)
# Sequence of UniProt Q9BV86 (Q9BV86 whole entry, looked up): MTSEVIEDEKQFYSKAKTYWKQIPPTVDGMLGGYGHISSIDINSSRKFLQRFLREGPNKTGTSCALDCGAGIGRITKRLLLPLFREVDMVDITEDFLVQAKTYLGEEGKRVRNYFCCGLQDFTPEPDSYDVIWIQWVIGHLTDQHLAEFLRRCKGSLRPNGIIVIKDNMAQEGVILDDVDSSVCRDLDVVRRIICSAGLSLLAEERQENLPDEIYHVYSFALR
# Assay: qHTS Assay for Inhibitors of N-terminal methyltransferase 1 (NTMT1): LOPAC validation of the NTMT1 SAHH-coupled ThioGlo3 Assay (AID 1347143);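 further: SAH from peptide methylation measured as thiol fluorescence via SAHH coupling and ThioGlo3; nearly all actives have a fitted effect of over 70% in size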
# Settings: recombinant NTMT1, SAHH-coupled ThioGlo3 fluorescence; series mostly up to 114 µM; activity change, negative = inhibition: at the top concentration
# Description: Assay Submitter (PI): Rong Huang Ph.D, Purdue University, West Lafayette, IN 47907 The N-terminal methytransferase 1 is the first methyltransferase that methylates protein alpha-N-amines and plays an important role in regulating cell mitosis, chromatin interactions and DNA repair. It is observed to be over-expressed in various cancer patient tissues like malignant melanoma and colorectal cancer tissues. Knockdown of NTMT1 in cancer cells causes cell mitotic defects and enhances sensitivity to DNA damaging chemotherapeutics. […] These critical cellular processes in which NTMT1 is implicated, coupled with emerging links to cellular dysfunction, strengthen the inference that NTMT1 is a compelling novel anticancer target. Progress have been made in understanding the molecular properties of NTMT1 and the biological consequences of protein alpha-N-terminal methylation, but there are no specific small molecule probes available for NTMT1 to fully characterize its MTase activity. To address this unmet need, a panel of assay is created and established to enable quantitative high-throughput screening (qHTS) for novel, potent, and selective small molecule NTMT1 inhibitors. Two orthogonal qHTS that use different reagents (ThioGlo vs. MTaseGlo) are developed for primary robotic screening against the NCATS chemical library of more than 400,000 small molecules. Identified inhibitors are reacquired, validated, and further characterized. […] A pilot screen against the LOPAC library of 1280 compounds is carried out to assess performance of the optimized qHTS in 1536-well plate format. Early Translation Branch (ETB) National Center for Advancing Translational Sciences (NCATS) National Institute of Health (NIH)
# Materials: NTMT1 enzyme, substrate SPKRIA, control peptide RCC1-6 is provided by the Huang laboratory. ThioGlo3 Assay: In brief, 125nM NTMT1 enzyme was dispensed into a 1536-well assay plate with Aurora Discovery BioRAPTR Flying Reagent Dispenser (FRD, Beckton-Dickenson). Compounds (at various concentration) or 1uM RCC1-6 (SPKRIA) control were transferred to the assay plate using the Kalypsys 1536-pintool apparatus. After 1 min of room temperature incubation, 1uL of substrate (100uM SAM, 10uM SAHH, 15uM ThioGlo3) was added to the wells bringing the final assay volume to 4uL. Initial (background) fluorescence readout (EX: 340nm, EM: 450nm) was then detected using the PerkinElmer ViewLux microplate imager and a final fluorescence readout was taken after 30 min of room temperature incubation. The data was normalized to the background fluorescence.
# On the % scale 0 is the no-effect control and ±100 the full control effect; potency means the concentration at half of the fitted maximal effect; tags describe the fitted curve by direction and shape.
Structure (SMILES),Potency,"activity change, negative = inhibition"
C=CCN1CCc2c(cc(O)c(O)c2Cl)C(c2ccccc2)C1 (stereo not given),active: 20 µM,
COc1cc(OC)cc(-c2cc3cnc(N)nc3nc2NC(=O)NC(C)(C)C)c1,"inconclusive [inhibitor, single point]",
O=C(OCCN1CCOCC1)C1(c2ccccc2)CCCCC1,"inconclusive [inhibitor, partial curve]",
OCC1O[C@H]([S-])C(O)[C@@H](O)[C@@H]1O.[Au+] (stereo not given in full),,inactive: 1550%
CC(C)c1cccc(C(C)C)c1N1C(=O)c2ccc(O)cc2C1=O,,inactive: -11.7%
COc1cc(CNC(=O)CCCCCCC(C)C)ccc1O,"inconclusive [inhibitor, partial curve]",
NCCCCN=C(N)N,,inactive: -8.5%
NC(=S)c1ccc[n+]([C@@H]2O[C@@H](COP(=O)([O-])OP(=O)(O)OC[C@H]3O[C@@H](n4cnc5c(N)ncnc54)[C@H](OP(=O)(O)O)C3O)C(O)C2O)c1 (stereo not given in full),"inconclusive [inhibitor, partial curve]",
NCC(O)c1ccc(O)c(O)c1 (stereo not given),"inconclusive [inhibitor, partial curve]",
C[C@](Cc1ccc(O)c(O)c1)(NN)C(=O)O,active: 39.8 µM,
O=C(O)CCC(C(=O)O)N1C(=O)c2ccccc2C1=O (stereo not given),"inconclusive [inhibitor, full curve, poor fit]",
CCCCCC(O)CCCC(=O)O (stereo not given),,inactive: -16.3%
O=c1[nH]c2ccccc2c2ccccc12,"inconclusive [inhibitor, partial curve]",
O=c1ccc2c(OCCCCc3ccccc3)c3ccoc3cc2o1,"inconclusive [inhibitor, partial curve]",
CN(C)CCCc1cc(C(=O)Nc2ccc(-c3ccncc3)cc2)ccc1O,"inconclusive [inhibitor, partial curve]",
CC1=C(/C=C/C(C)=C/C=C/C(C)=C\C(=O)O)C(C)(C)CCC1,"inconclusive [inhibitor, single point]",
CCC1(O)CC2CN(CCc3c([nH]c4ccccc34)[C@@](C(=O)OC)(c3cc4c(cc3OC)N(C)C3[C@]45CCN4CC=C[C@@](CC)([C@@H](OC(C)=O)[C@]3(O)C(=O)OC)[C@H]45)C2)C1 (stereo not given in full),"inconclusive [inhibitor, single point]",
CCN(CC)CCOC(=O)c1cc(Cl)c(N)cc1OC,"inconclusive [inhibitor, partial curve]",
NCCCNCCCCNCCCN,"inconclusive [inhibitor, partial curve]",
Nc1nc(Cl)nc2c1ncn2[C@@H]1O[C@H](COP(=O)(O)OP(=O)(O)OP(=O)(O)O)C(O)[C@H]1O (stereo not given in full),"inconclusive [inhibitor, partial curve]",

Structure (SMILES),Potency,"activity change, negative = inhibition"
COc1ccc(Br)cc1S(=O)(=O)NC(=O)/C=C/c1ccccc1Cc1ccc2ccccc2c1,"inconclusive [inhibitor, single point]",
COc1cc(C(O)CO)ccc1O (stereo not given),,inactive: -24%
Nc1ccc(CCNc2ncnc3c2ncn3C2OC(CO)C(O)C2O)cc1 (stereo not given),"inconclusive [inhibitor, partial curve]",
[N-]=[N+]=Nc1ccc(C(=O)CSC[C@H](NC(=O)CC[C@H](N)C(=O)O)C(=O)NCC(=O)O)cc1,,inactive: -12.5%
Nc1ccn([C@@H]2O[C@H](CO)[C@@H](O)[C@@H]2O)c(=O)n1,"inconclusive [inhibitor, partial curve, poor fit]",
CC(N)(Cc1ccc(O)cc1)C(=O)O (stereo not given),,inactive: 7.03%
CNCCNS(=O)(=O)c1cccc2cnccc12,"inconclusive [inhibitor, partial curve]",
N=C(N)c1ccc(N)cc1,"inconclusive [inhibitor, partial curve]",
CSC(N)=NCCC[C@H](N)C(=O)O,,inactive: -5.69%
Oc1ccccc1O,active: 44.7 µM,
O=c1[nH]c(=S)[nH]c(-c2ccccc2)c1Cc1c(O)ccc2ccccc12,active: 79.4 µM,
C=C[C@H]1CN2CC[C@@H]1C[C@@H]2[C@@H](O)c1ccnc2ccc(OC)cc12,active: 56.2 µM,
NCCS,"inconclusive [inhibitor, partial curve, poor fit]",
C/C(=C\c1ccc(C(=O)O)cc1)c1ccc2c(c1)C(C)(C)CCC2(C)C,"inconclusive [inhibitor, single point]",
O=C1CN(/N=C/c2ccc(-c3ccc([N+](=O)[O-])cc3)o2)C(=O)N1,"inconclusive [inhibitor, partial curve]",
CO/N=C(\C(=O)N[C@@H]1C(=O)N2C(C(=O)O)=C(COC(C)=O)CS[C@H]12)c1csc(N)n1 (stereo in doubt),,inactive: 21.5%
C=CCN1CCc2cc(O)c(O)cc2C(c2ccccc2)C1 (stereo not given),active: 35.5 µM,
Nc1ncnc2c1ncn2[C@@H]1O[C@H](COP(=O)(O)OP(=O)(O)OP(=O)(O)OP(=O)(O)OC[C@@H]2O[C@H](n3cnc4c(N)ncnc43)[C@@H](O)C2O)C(O)[C@H]1O (stereo not given in full),"inconclusive [inhibitor, full curve]",
CN1CCc2cc(Cl)c(O)cc2[C@@H](c2ccccc2)C1,"inconclusive [inhibitor, partial curve]",
COc1ccccc1N1CCN(CCCNc2c(C)c(=O)n(C)c(=O)n2C)CC1,"inconclusive [inhibitor, partial curve, poor fit]",
